From PMC4336329 (PLoS ONE, 2015)
The campaign covered roughly 310,000 compounds. About 2,200 (0.71%) showed an effect of 50% or more. Effects have a minus sign here. Some of the results follow.

These molecules were tested against human ether-à-go-go-related gene (hERG) potassium channel (human, UniProt Q12809) (assay: primary screen, population patch clamp on CHO cells stably expressing hERG).
human ether-à-go-go-related gene (hERG) potassium channel, sequence (Q12809 whole entry, looked up): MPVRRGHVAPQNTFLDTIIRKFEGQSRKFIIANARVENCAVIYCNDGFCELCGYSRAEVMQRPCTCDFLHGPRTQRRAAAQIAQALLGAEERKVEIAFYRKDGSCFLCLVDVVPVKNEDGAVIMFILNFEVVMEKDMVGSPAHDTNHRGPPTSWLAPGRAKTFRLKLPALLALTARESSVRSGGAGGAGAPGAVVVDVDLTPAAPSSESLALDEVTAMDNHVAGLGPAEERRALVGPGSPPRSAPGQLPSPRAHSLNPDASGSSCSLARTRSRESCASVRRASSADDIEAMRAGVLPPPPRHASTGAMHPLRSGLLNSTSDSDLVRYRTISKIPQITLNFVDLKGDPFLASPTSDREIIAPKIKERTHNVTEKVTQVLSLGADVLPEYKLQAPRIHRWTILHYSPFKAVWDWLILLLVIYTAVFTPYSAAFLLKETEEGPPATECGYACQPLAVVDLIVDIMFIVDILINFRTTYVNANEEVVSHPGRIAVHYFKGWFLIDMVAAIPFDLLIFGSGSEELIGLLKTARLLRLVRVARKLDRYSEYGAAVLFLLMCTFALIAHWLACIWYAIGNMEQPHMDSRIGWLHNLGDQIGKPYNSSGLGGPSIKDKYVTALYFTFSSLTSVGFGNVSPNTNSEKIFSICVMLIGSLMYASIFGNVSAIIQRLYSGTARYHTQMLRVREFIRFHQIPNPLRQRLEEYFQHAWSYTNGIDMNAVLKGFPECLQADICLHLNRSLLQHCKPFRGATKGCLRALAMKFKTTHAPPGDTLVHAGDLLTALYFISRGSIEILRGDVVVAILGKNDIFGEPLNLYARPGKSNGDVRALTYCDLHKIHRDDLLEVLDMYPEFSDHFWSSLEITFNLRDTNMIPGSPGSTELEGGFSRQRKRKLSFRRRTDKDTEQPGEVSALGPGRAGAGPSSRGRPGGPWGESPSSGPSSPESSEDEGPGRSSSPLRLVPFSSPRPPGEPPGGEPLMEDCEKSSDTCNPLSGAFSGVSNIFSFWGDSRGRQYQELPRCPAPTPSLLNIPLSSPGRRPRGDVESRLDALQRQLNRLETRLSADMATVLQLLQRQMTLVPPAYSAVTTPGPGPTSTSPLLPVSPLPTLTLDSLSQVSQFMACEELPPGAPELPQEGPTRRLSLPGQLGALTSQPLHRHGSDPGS

Compound | hERG current change (%, negative = inhibition) at 1uM [%]
O=C(NC1CCCCC1)c1c(O)nc2sccn2c1=O | -11.2
COc1ccccc1NC(=O)c1ccc(NC(=O)COC(=O)C2CC2C)cc1 (centres unmarked) | 7.97
CN1CCN(CCCNC(=O)c2ccc3c(Cl)c4c(nc3c2)CCCC4)CC1 | 8.94
CCCn1nc(C(=O)OCn2nnc3ccccc3c2=O)c2ccccc2c1=O | 15.8
CCC(=O)N1CCCC(C(=O)c2ccc(-c3ccccc3)cc2)C1 (centres unmarked) | 15.9
Cc1ccc2c(c1)NC(=O)c1cccc([N+](=O)[O-])c1CO2 | 7.19
Nc1nnc(CCN2CCCCC2)s1 | 16.8
COc1ccc(N2C(=O)CC3(CCCC3)CC2=O)cc1 | 13.4
CCCCCCc1ccc(OC(=O)c2ccncc2)cc1 | 18.2
COC(=O)Cc1ccc(NC(=S)N2CCN(c3ccccn3)CC2)cc1 | 10.6
O=C(Nc1ccnn1C1CCN(C/C=C/c2ccccc2)CC1)c1cccc(F)c1 | -58.5
Cc1ccc(NS(=O)(=O)c2ccc(C(=O)N3CCCCCC3)cc2)cc1 | 3.7
COc1ccc(C(=O)NCCNC(=O)c2cnccn2)cc1 | 12.3
Cc1cc(/C=C2/C(=O)N(C)C(=S)N2C)ccc1N1CCCC1 | 1.15
CCc1ccc(N/C(SCc2ccccc2C)=C(/C#N)C(=O)NCc2ccco2)cc1 | -0.648
CCOc1ccc(NC(=O)NC2(C(=O)NCc3ccco3)CCCCC2)cc1 | 18.3
O=C(NC1CCCc2c1cnn2-c1cc(F)cc(F)c1)c1ccncc1 (centres unmarked) | -25.3
COc1ccc(-c2nc3ccccc3c(=O)n2CCCN2CCOCC2)cc1 | 9.84
COc1ccc(-c2nc(N)nc(C)c2-c2ccc(Cl)cc2)c(O)c1 | 18.2
CC1CC1C(=O)Nc1ccc(-c2ccccc2)cc1 (centres unmarked) | 10
C=C1CCN(CC(=O)OC)S(=O)(=O)c2ccccc21 | 10.9
CCCc1nnc(NC(=O)CCC(=O)N2CCC3(CC2)OCCO3)s1 | 11.3
CC1(C)NS(=O)(=O)Oc2ccccc21 | 18.6
Cl.NCCNc1ccc([N+](=O)[O-])cc1 | 1.2
Cc1c(N=C2NN=C(c3c[nH]c4ccccc34)CS2)c(=O)n(-c2ccccc2)n1C | 9.41
COc1ccc(C2/C=C\CN(CC(C)(C)C)CC(=O)N2Cc2ccc(F)cc2)cc1 (centres unmarked) | 17
